# About 14,000 (4.5%) of roughly 310,000 compounds showed an effect of 50% or more. Effects have a minus sign here. The list shows a part of the results.
# Target: human ether-à-go-go-related gene (hERG) potassium channel (human, UniProt Q12809)
# Test: primary screen, population patch clamp on CHO cells stably expressing hERG
# 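Also: peak tail current of the secondary pulse compared with the same well before compound.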
# Sequence of human ether-à-go-go-related gene (hERG) potassium channel (Q12809 whole entry, looked up): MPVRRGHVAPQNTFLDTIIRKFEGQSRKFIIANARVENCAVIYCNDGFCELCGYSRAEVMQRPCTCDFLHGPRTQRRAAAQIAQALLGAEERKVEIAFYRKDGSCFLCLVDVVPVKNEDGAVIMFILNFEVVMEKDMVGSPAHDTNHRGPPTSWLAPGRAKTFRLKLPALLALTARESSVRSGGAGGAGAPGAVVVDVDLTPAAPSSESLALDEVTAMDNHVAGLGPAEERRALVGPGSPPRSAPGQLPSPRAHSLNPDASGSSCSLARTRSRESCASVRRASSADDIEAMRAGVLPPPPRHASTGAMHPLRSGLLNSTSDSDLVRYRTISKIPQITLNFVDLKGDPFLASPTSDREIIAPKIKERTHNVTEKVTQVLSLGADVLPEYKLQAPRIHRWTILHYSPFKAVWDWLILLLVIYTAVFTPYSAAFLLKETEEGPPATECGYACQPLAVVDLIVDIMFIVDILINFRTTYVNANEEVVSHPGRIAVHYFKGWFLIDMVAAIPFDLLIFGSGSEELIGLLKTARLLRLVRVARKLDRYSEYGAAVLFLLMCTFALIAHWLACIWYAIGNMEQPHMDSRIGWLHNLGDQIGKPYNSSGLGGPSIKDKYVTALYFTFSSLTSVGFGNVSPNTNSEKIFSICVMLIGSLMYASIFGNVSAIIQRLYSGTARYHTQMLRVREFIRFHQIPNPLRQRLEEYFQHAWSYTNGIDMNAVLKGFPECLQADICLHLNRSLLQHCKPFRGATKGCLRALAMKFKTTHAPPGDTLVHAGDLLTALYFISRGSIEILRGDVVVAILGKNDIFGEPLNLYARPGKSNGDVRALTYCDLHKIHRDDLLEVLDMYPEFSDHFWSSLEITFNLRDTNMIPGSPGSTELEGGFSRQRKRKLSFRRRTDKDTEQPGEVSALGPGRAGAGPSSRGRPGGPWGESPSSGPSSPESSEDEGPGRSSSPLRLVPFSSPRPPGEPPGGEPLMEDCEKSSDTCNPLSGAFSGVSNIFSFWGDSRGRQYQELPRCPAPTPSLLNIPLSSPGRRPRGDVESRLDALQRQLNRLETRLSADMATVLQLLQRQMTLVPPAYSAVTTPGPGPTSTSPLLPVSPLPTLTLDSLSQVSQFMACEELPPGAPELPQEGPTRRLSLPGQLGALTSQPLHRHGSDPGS
row,SMILES,"hERG current change (%, negative = inhibition) at 10uM [%]"
1,CC(=O)Nc1cccc(/C(C)=N/NC(=O)c2cccc(S(=O)(=O)N3CCOCC3)c2)c1,-1.18
2,COc1ccc(NC(=O)C2C3C=CC(O3)C2C(=O)NCc2cccnc2)cc1 (stereo not shown),-1.13
3,COC(=O)c1ccc(NC(=O)CCN2CCN(Cc3ccccc3)CC2)cc1,-58.6
4,O=C(O)c1cnc(-c2ccccc2)nc1C(F)(F)F,24.3
5,COc1ccc(-c2ccc(/C=C3\C(=O)N(c4ccccc4)N=C3c3ccccc3)o2)c([N+](=O)[O-])c1,6.46
6,COc1ccc(OC)c(N/C=C/C(=O)c2ccc(OC)c(OC)c2)c1,11.5
7,CCOc1ccc(CCNC(=O)COC(=O)c2sccc2C)cc1OCC,4
8,CCC(C(=O)NCc1ccco1)n1nc(C)c2c(C)n(-c3ccc(C)cc3)nc2c1=O (stereo not shown),-58.9
9,O=C(Nc1ccc(F)cc1)c1ccc(S(=O)(=O)NCC2CCCO2)cc1 (stereo not shown),-1.24
10,O=C(CN1CCN(Cc2cccc(Cl)c2)C1=O)NCC1CCCO1 (stereo not shown),6.28
11,COc1ccc(C(=O)C(CN2CCOCC2)c2ccccc2)cc1.Cl (stereo not shown),-11.7
12,CSCCC(C(=O)NCc1cccs1)N1C(=O)c2ccccc2C1=O (stereo not shown),-11.4
13,Cn1c([N+](=O)[O-])cnc1N1CCN(c2nncs2)C1=O,4.86
14,CCNC(=O)CC1SC(=Nc2ccc(C)cc2)NC1=O (stereo not shown),13
15,FC(F)(F)c1cc(-c2ccco2)nc(NCCc2ccccc2)n1,13
16,O=C(c1ccco1)c1cn(CC(=O)N2CCCC2)c2ccccc12,-0.491
17,COC(=O)c1ccc(N2C(=O)Nc3ccccc3N2O)cc1,12.5
18,CN(C)S(=O)(=O)c1cccc(NC(=O)CCCSc2ccccc2)c1,-35.7
19,CC(C)Cc1nnc(NC(=O)CS(=O)(=O)Cc2ccccc2)s1,21.5
20,Cc1ccccc1N1CC(O)(c2cccs2)[N+]2=C1CCCC2.[Br-] (stereo not shown),-25.9
21,COCCNC(=O)Cn1cc(C(=S)N2CCOCC2)c2ccccc21,20.5
22,Cc1cc(Cl)ccc1N1C(=O)CC(NNC(=O)c2cccnc2)C1=O (stereo not shown),-6.52
23,COc1ccc(NC(=O)c2cc3ccccn3n2)cc1,-10.7

row,SMILES,"hERG current change (%, negative = inhibition) at 10uM [%]"
1,C/C(=N/NC(=O)CNC(=O)c1cccnc1)c1ccc(Cl)cc1,-1.67
2,CCc1nnc2n1N=C(c1ccc(-c3cc(Cl)ccc3Cl)o1)CS2,13
3,O=C(c1cccc([N+](=O)[O-])c1)c1ccccn1,-5.85
4,Cc1c(CN2CCN(C)C(CCO)C2)[nH]c2c(Cl)cccc12 (stereo not shown),-42
5,COc1ccc(CNC(=O)COC(=O)C(CCSC)NC(=O)c2ccco2)cc1OC (stereo not shown),-9.05
6,CCn1c(SCC(=O)Nc2ccc3c(c2)OCCO3)nnc1-c1ccco1,-25.9
7,CC(C)CCOC(=O)C[N+](C)(C)CCOC1CC2CCC1(C)C2(C)C.[Cl-] (stereo not shown),-16.3
8,COc1cc(OC)cc(C(=O)N2CCCc3ccccc32)c1,-9.15
9,CNNC(=O)C(C)NC(=O)c1ccc(Br)cc1 (stereo not shown),-13.4
10,O=C(O)C(=O)O.O=S(=O)(c1ccc(F)cc1)N1CCN(Cc2ccccn2)CC1,15.6
11,N#CC1=C(SCC(=O)c2ccc(Br)cc2)NC2=C(C(=O)CCC2)C1c1ccco1 (stereo not shown),-17.3
12,CC(=O)Nc1ccc(OCC(=O)NC(C)c2ccc(F)cc2)cc1 (stereo not shown),18.5
13,O=C1NC(=O)/C(=C/c2cccc(O)c2)N1,21
14,COc1cc(C(=O)NCCC(=O)NC2CCCc3ccccc32)cc(OC)c1OC (stereo not shown),26.9
15,C=CCn1c(COc2ccccc2F)nnc1SCCN1C(=O)c2ccccc2C1=O,-41.6
16,O=C(OC(C(=O)NC1CCCC1)c1ccccn1)c1cccs1 (stereo not shown),-3.4
17,CCOc1cc(/C=C(\C#N)c2nc3ccccc3[nH]2)ccc1OC(C)C(=O)O (stereo not shown),14.5
18,O=C(O)c1cccc2c1C(=O)N(c1ccccc1)C2,11.5
19,Cc1nn(C)c(-c2n[nH]c(=S)n2-c2ccccc2)c1Cl,32.4
20,COc1ccccc1-c1oc2ccccc2c1C#CCCO,0.326
21,COc1ccc(-c2ccc(NC(=O)c3ccco3)cc2)nn1,5.79
22,COC(=O)c1c(NC(=O)CSc2nc3ccccc3c(=O)n2Cc2ccco2)sc(C)c1C,-3.44
23,CCN1CCN(CC(=O)c2c[nH]c3ccccc23)CC1,-2.02

row,SMILES,"hERG current change (%, negative = inhibition) at 10uM [%]"
1,Cc1ccc(NC(=O)C(C)c2ccc([N+](=O)[O-])cc2)cc1Cl (stereo not shown),1.23
2,Cc1nn(CC(=O)Nc2ccc(C(=O)N(C)C)cc2)c(=O)c2ccccc12,7.63
3,Cc1ccc(C2CC(=O)N3CN(Cc4ccco4)CSC3=C2C#N)cc1 (stereo not shown),11.3
4,CCn1c(N)c(C(=O)NCc2cccnc2)sc1=S,-13.9
5,CC1(C)CC2(CCO1)C(Nc1ccccc1)=NC(=S)N2CC(N)=O (stereo not shown),15.5
6,CCCCCOCC1CC(C/C(C)=N/NC(N)=O)(C(=O)OCC)C(=O)O1 (stereo not shown),0.081
7,CC1CN(c2oc(-c3ccco3)nc2C#N)CC(C)O1 (stereo not shown),2.66
8,c1ccc(Cn2nnnc2C(c2ccccc2)N2CCN(c3nc4ccccc4s3)CC2)cc1 (stereo not shown),-11.7
9,Cc1cc(OCC(=O)OCC(=O)N2c3ccccc3NC(=O)C2(C)C)ccc1Cl,5.9
10,COc1ccc(OC)c(/C=N/NC(=O)CN2CCSCC2)c1,0.397
11,NCCCn1cnc2ccccc21,9.44
12,CC(C)C(=O)NC(NCC1CCCO1)C(Cl)(Cl)Cl (stereo not shown),15.9
13,COc1cccc(N2CCN(c3ccc4nnc(CCC(=O)Nc5cccc(C(C)=O)c5)n4n3)CC2)c1,-3.68
14,CCOc1ccccc1NS(=O)(=O)c1ccc2c(c1)N(C)CCO2,7.1
15,CC(C)CC(=O)N1CCN(S(=O)(=O)c2ccc3ccccc3c2)CC1,-12.9
16,CO/N=C(\C(=O)N[C@@H]1C(=O)N2C(C(=O)[O-])=C(COC(N)=O)CS[C@H]12)c1ccco1.[Na+],18.9
17,COc1ccccc1C(C)N(C)Cc1nc(COc2ccccc2)no1 (stereo not shown),4.69
18,CC(=O)Nc1ccc2c(c1)C(=O)N(c1cccc(C)c1)C2=O,2.75
19,COc1cccc(/C=N/n2c(-c3cc(C)[nH]n3)n[nH]c2=S)c1OC,11.2
20,Cc1cc(C)cc(NC(=O)N2CCNC(=O)C2CC(=O)Nc2cc(Cl)ccc2Cl)c1 (stereo not shown),9.28
21,Cc1cc(C)c(NC(=O)CCCN2CCN(C)CC2)c(C)c1,-3.31
22,CCCCS(=O)(=O)NC1=NCN(CC)CN1,9.98
23,COc1ccccc1NC(=O)CN1C(=O)COc2ccc(S(=O)(=O)N3CCOCC3)cc21,-8.99

row,SMILES,"hERG current change (%, negative = inhibition) at 10uM [%]"
1,CC(C)COc1ccc(C(=O)N/N=C/c2ccoc2)cc1,3.4
2,CCc1ccccc1NC(=O)CC(NCc1ccccc1)C(=O)O (stereo not shown),22.5
3,CC1=C(C(=O)N2CCCCCC2)C2(CCC(C)CC2)OC1=O (stereo not shown),2.11
4,Cc1ccc(SCc2cn3c(C)cc(C)nc3n2)cc1,-67.1
5,O=C(O/N=C/c1cccc([N+](=O)[O-])c1)C1CC1,0.336
6,COc1ccc(-n2c(C)nc3c(cnn3-c3ccc(C)c(C)c3)c2=O)cc1,-11.2
7,Nc1ccccc1C(=O)NC12CC3CC(CC(C3)C1)C2,-0.22
8,CCc1ccc(NC(=O)C2CC(=O)N=C(N)S2)cc1 (stereo not shown),15.7
9,Cc1cc(NC(=O)CSc2nnc(-c3ccccc3)n2C)no1,10.1
10,COc1ccc(N2C(=O)CC(N3CCN(C(=O)c4ccco4)CC3)C2=O)cc1 (stereo not shown),2.47
11,O=C(CCc1nnc2n(Cc3ccc(Cl)cc3)c(=O)c3ccccc3n12)NCCN1CCCC1,-75.8
12,CC(C(=O)Nc1ccccc1C(=O)N1CCOCC1)N(c1ccccc1)S(C)(=O)=O (stereo not shown),11.1
13,COc1ccc(CNC(=O)CSc2nc(SC)ns2)cc1,-15.2
14,Cc1cc(NC(=O)CN2CCOCC2)n(-c2ccccc2)n1,0.107
15,O=[N+]([O-])c1cccnc1SCc1ccccc1,18
16,COc1ccc(CN2CCCC(CO)(Cc3ccc(F)cc3)C2)cc1C (stereo not shown),-47.7
17,CC(=O)Nc1ccc(-c2nnc(SCC(=O)c3ccc4c(c3)Cc3ccccc3-4)n2C)cc1,10.8
18,Cc1ccccc1CSc1nc2ccccc2c(=O)n1C,25.5
19,CC(=O)Nc1ccc2c(c1)NC(=O)CC2,18.3
20,COc1ccc(CNC(=O)C2=CC(c3ccc(OC)c(OC)c3)=NS(=O)(=O)N2C)cc1,-21.8
21,CC(=O)c1ccc(NC(=O)CSc2nc(C3CC3)nc3ccccc23)cc1,15
22,O=C(NC(C(=O)N/N=C/c1c2ccccc2cc2ccccc12)c1n[nH]c(=O)c2ccccc12)c1ccccc1 (stereo not shown),12.4

# Source: article PMC4336329 (PLoS ONE, 2015)
